The source of these data is PubChem BioAssay AID1240 (Sanford-Burnham Center for Chemical Genomics, 2008).

Screen size: about 50,000 compounds; about 800 (1.6%) showed an effect of 50% or more. Some of the results follow.

This experiment addresses Bcl-2-like protein 10 (Homo sapiens) (UniProt Q9HD36). Description: TR3 peptide-Bcl-B binding displacers, biochemical primary FP assay, phenotype converters (AID 1240).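 Note: 0% = Bcl-B with tracer peptide and DMSO and 100% = tracer peptide lacking Bcl-B.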 The following applies: GST-Bcl-B / FITC-TR3 peptide fluorescence polarization; stronger effect = higher value; compound at 3.75 mg/L.
UniProt Q9HD36, sequence (Q9HD36 whole entry, looked up): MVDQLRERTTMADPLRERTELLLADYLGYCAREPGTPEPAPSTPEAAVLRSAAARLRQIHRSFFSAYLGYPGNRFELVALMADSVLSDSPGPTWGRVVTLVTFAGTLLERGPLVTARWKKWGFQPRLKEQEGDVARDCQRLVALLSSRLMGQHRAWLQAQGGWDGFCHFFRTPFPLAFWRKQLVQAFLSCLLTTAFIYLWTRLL
With `CCn1c(/N=C/c2ccc(OC)c3cccc(OC)c23)nc2ccccc21`, the displacement is -3%.
Then `CSc1nnc2c(n1)OC(c1ccc(-c3ccc([N+](=O)[O-])cc3)o1)Nc1ccccc1-2` (stereo not given), with 6.8%.
Then `COc1cc(NC(=O)c2ccc(Br)cc2)cc(OC)c1`, with 3.8%; and `CCOc1nc(N=C(N)N)nc2c(C)cccc12`, with -14.4%; and `Cc1ccc(-c2csc(N)c2C(=O)OC(C)C)cc1C`, with -5.6%.
Consider `O=C(c1cccc(F)c1)N1CCN(C2CCC(c3ccccc3)CC2)CC1` (stereo not given), for which the displacement is -9.2%.
The same measure for `O=C(c1cc2ccccc2oc1=O)N1CCCC1`: -2.5%; for `NS(=O)(=O)c1cccc(NC(=O)c2ccc(Cl)cc2Cl)c1`: 13.4%.
For the compound `CNC(=O)C(C)NC(=O)C12CC3CC(CC(C3)C1)C2` (stereo not given), the displacement came to 6.6%.
Then `O=C(Nc1ccc(Br)c(Cl)c1)c1cccc([N+](=O)[O-])c1`, with 6.3%.
Then `O=C(/C=C/c1ccccc1)NC(=S)Nc1ccc([N+](=O)[O-])cc1Cl`, with 2.7%; and `CC(C)c1ccc(N2C(=O)c3ccccc3NC2c2ccc3c(c2)OCO3)cc1` (stereo not given), with 1.8%; and `Cc1ccc[n+](CC(=O)c2ccc(Cl)cc2)c1C`, with 5.6%.
Then `COc1ccc(OCC(=O)Nc2cccc(-c3nc4ccccc4s3)c2)cc1`, with 5%.
For the compound `Cc1c(NC(=O)NC(=O)c2ccc(F)cc2)c(=O)n(-c2ccccc2)n1C`, the displacement is 2.5%.
Turning to `O=C1CC(c2ccc(Cl)cc2)CC2=C1C(c1cc3c(cc1[N+](=O)[O-])OCO3)Nc1ccccc1N2` (stereo not given), the displacement is -1.1%.
The same measure for `COC(=O)C1=NN(C(=O)c2cccc(OC)c2)C(O)(c2ccc(Cl)cc2)C1` (stereo not given): -15.2%.
As to `O=C(Nc1cc([N+](=O)[O-])ccc1O)c1ccc(C(=O)Nc2cc([N+](=O)[O-])ccc2O)cc1`, the displacement stood at 4.4%.
Take `CCOc1ccc(N2C(=O)C3CC=CCC3C2=O)cc1` (stereo not given): the displacement amounted to 14.7%.
Then `O=C(Nc1ccc(O)c(-c2nc3ccccc3s2)c1)C(c1ccccc1)c1ccccc1`, with 0.4%.
Then `CC(/C=C1\SC(N2CCN(C3=NC(=O)/C(=C\C(C)=C\c4ccccc4)S3)CC2)=NC1=O)=C\c1ccccc1`, with -9%; and `O=C1C(=Cc2ccc(-c3ccc(Cl)c([N+](=O)[O-])c3)o2)C(=O)c2ccccc21`, with -7.8%; and `CC(=O)c1cc(Cc2csc(C(C)=O)c2)cs1`, with 8.4%.
The same measure for `O=C(N/N=C/c1cccc([N+](=O)[O-])c1)c1cc(C2CC2)[nH]n1`: -7.4%.
Turning to `CCOC(=O)C1=C(C)N(CC)C(=O)NC1c1ccccc1Cl` (stereo not given), the displacement is 2.1%.
For `CN1CCN(S(=O)(=O)c2cc(Cl)ccc2Br)CC1`, the displacement is 17.3%.
On to `COc1ccc(C(NC(=O)c2ccco2)c2ccc(OC)cc2)cc1`, for which the displacement is -4.9%.
The same measure for `O=C1S/C(=C/c2ccccc2)C(=O)N1CN1CCCCC1`: 14%; for `CC1=C(C(=O)Nc2ccccc2)C2(CCCCC2)C(C#N)=C(SCC(N)=O)N1`: 0%; for `CCCCNCCCCCOc1cc(C)ccc1C`: 8.1%.
As for `CCOC(=O)c1c(NS(=O)(=O)c2ccc(OC)c(OC)c2)sc2c1CCCC2`, the displacement was -1.7%.
Then `CCOC(=O)C1=C(O)/C(=C\c2ccc([N+](=O)[O-])cc2)N=C1C`, with 1.5%; and `CCOc1cc(C2Nc3ccccc3NC3=C2C(=O)CC(c2ccc(OC)cc2)C3)ccc1OC(=O)C1CC1` (stereo not given), with 9%.
For `COc1ccc(C(=O)Nc2c(-c3ccccc3)nc3ccc(C)cn23)cc1`, the displacement was found to be 7.3%.
Turning to `Cc1ccc(NC(=O)CC(C)C)cc1Cl`, the displacement is -5.1%.
`CC1C(c2ccccc2)N(C)C(c2ccccc2)C(C)C1(O)Cc1ccccc1` (stereo not given): the displacement was 15.9%.
The same measure for `O=C(N/N=C/C(Br)=C\c1ccccc1)c1ccccn1`: -4.7%; for `CC(C)(C)c1ccc(C(=O)NC2CCCC2)cc1`: -3.1%; for `CC(=O)c1ccc(N2C(=O)c3ccc(C(=O)O)cc3C2=O)cc1`: 4.7%.
The same measure for `CC(NC(=O)/C(C#N)=C/c1ccc(N(C)C)cc1)c1ccccc1` (stereo not given): 1.8%.
In the case of `CCOC(=O)C1=C(C)N=c2s/c(=C\c3ccc(O)c(OC)c3)c(=O)n2C1c1ccc(N(C)C)cc1` (stereo not given), the displacement is -13.9%.
Then `CCOC(=O)c1c(-c2ccc(Cl)cc2)csc1NC(=O)C1CCCCC1C(=O)O` (stereo not given), with -3.7%; and `O=C(c1cnn2c(C(F)(F)F)cc(-c3cccs3)nc12)N1CCCc2ccccc21`, with 11.4%.
The same measure for `O=C(O)/C=C/c1ccc(S(=O)(=O)N2CCN(CCN3C(=O)C4C5C=CC(C5)C4C3=O)CC2)cc1` (stereo not given): -9.2%; for `COCCCNC(=O)C(=O)Nc1ccc(Cl)cc1`: 9.3%.
`CCOC(=O)/C(=C1/OC(=O)c2ccccc21)c1ccc([N+](=O)[O-])cc1`: the displacement was -1.5%.
Take `C#CCOc1ccc(/C=C(/C#N)C(=O)Nc2cccc(Br)c2)cc1OC`: the displacement stood at 3.6%.
The same measure for `O=C(Cc1ccccc1)N1CCc2ccccc2C1`: -8%; for `CCN(CC)CCC/C(=N\O)C(O)(c1ccccc1)c1ccccc1`: -4.1%.
Then `COc1cc(-c2ncnn2-c2ccc(F)c([N+](=O)[O-])c2)ccc1OCc1ccccc1`, with -1.3%; and `CCc1ccc(N/C(=N/c2nc(C)cc(C)n2)NC(C)=O)cc1`, with -3.1%.
`O=C(CN1CCOCC1)NCCNC(=O)c1ccccc1`: the displacement was -7.4%.
For the compound `Cc1no[n+]([O-])c1COc1ccc(C=O)cc1`, the displacement is 9%.
With `O=C(COc1ccccc1Cl)Nc1ccc(Br)cc1C(=O)O`, the displacement amounted to 12.4%.
Regarding `CN=C(Nc1cc(Cl)ccc1Cl)SC1CC(=O)N(c2ccc(OC)cc2)C1=O` (stereo not given), the displacement is -2.7%.
Turning to `O=C1NC(=S)NC(=O)C1=Cc1cn(CCOc2ccc(Br)cc2)c2ccccc12`, the displacement came to 9.1%.
As to `COC(=O)c1ccc2c(c1[N+](=O)[O-])C(=O)c1ccccc1C2=O`, the displacement is -1.3%.
The same measure for `O=[N+]([O-])c1ccccc1/C=N/N1CCN(Cc2ccc(Cl)cc2)CC1`: -1.7%; for `O=C(Nc1cccc(O)c1)c1cc2nc(-c3ccccc3)cc(-c3ccccc3)n2n1`: -4.9%.
Then `CC(=O)C1=C(O)C(=O)N(CCN(C)C)C1c1ccccc1` (stereo not given), with -4.1%; and `O=C(Cc1ccccc1)Nc1ccc(OC(F)F)cc1`, with -7.4%.
The same measure for `Cc1ccc(S(=O)(=O)NC(=O)N2CCc3ccccc32)cc1`: 5.6%; for `Cn1cccc1CN1CCN(C(=O)c2ccc(F)cc2)CC1`: 5.2%; for `CC(C)(CN1CCCCC1)NS(=O)(=O)c1ccc(Cl)cc1`: 3%.
Consider `O=C(COc1ccccc1[N+](=O)[O-])Nc1cccc(Cl)c1Cl`, for which the displacement came out at 8.2%.
The same measure for `CC(=O)Nc1ccc(S(=O)(=O)N2c3cc(C)ccc3C(C)=CC2(C)C)cc1`: -2.3%; for `O=C(NN=C1CCCC1)C(=O)NC1CCCCC1`: -4.4%.
The same measure for `COc1ccc(/C=N/NS(C)(=O)=O)cc1`: 4.7%; for `O=C1C2C3C=CC(C4CC34)C2C(=O)N1c1ccc(I)cc1` (stereo not given): 10.8%.
The same measure for `CCCC(=O)Nc1ccc(NC(=O)COc2ccc(C(C)(C)C)cc2)cc1`: -5.2%; for `COc1cccc(-c2nc(-c3ccccn3)no2)c1`: 22%; for `Cc1cc(=O)oc2c(C(=O)c3ccccc3)c(OC(=O)c3ccccc3)ccc12`: -14.7%.
Regarding `O=C(c1cccnc1)N1CCN(C(=O)c2cccc(F)c2)CC1`, the displacement was 5.7%.
With `CCCOC(=O)c1ccc(NC(=O)C(C)Oc2ccccc2)cc1` (stereo not given), the displacement stood at 13.8%.
Then `COc1ccc(C(=O)Nc2ccc(Cl)c(-c3nc4ccccc4s3)c2)cc1[N+](=O)[O-]`, with -6.1%; and `COc1cc(NC(=O)c2ccc([N+](=O)[O-])cc2)ccc1NC(=O)c1ccco1`, with 10.2%; and `CCOC(=O)c1c(N)sc(C(=O)Nc2ccc(OC)cc2)c1C`, with -0.6%.
Regarding `CCOc1ccc(C(=O)Nc2cccc(C(C)=O)c2)cc1`, the displacement was found to be 9%.
Then `COc1ccc(/C=C/C(=O)NCCc2nc3ccccc3[nH]2)cc1OC`, with 12%; and `CCCCOC(=O)c1ccc(NC(=S)NC(=O)c2cccs2)cc1`, with -8.7%; and `CCN1C(=O)/C(=C\c2cccc(OCCOCCOc3ccc(C)cc3)c2)SC1=S`, with 2.7%.
The same measure for `Cc1ccc2nc(-c3cc(Cl)c(N)c(Cl)c3)sc2c1`: 1.5%; for `NS(=O)(=O)c1ccc(N/C=C\C(=O)c2ccc3c(c2)OCO3)cc1`: 4.4%.
Then `CC(C)=N/N=C1/NC(=O)C(CC(=O)Nc2ccc(C)cc2C)S1` (stereo not given), with -0.5%.
As to `C=C(C)c1cccc(C(C)(C)NC(=O)Nc2ccccc2C(=O)OC)c1`, the displacement is -2.7%.
Regarding `c1ccc(Nc2ncc(Cc3cccc4ccccc34)s2)cc1`, the displacement is -2.2%.
For the compound `Cc1cccc(C)c1NC(=O)c1ccc2c(c1)OCCO2`, the displacement was 9.1%.
`CCOc1ccc(CN2CCN(Cc3cc(OC)ccc3O)CC2)cc1`: the displacement was determined as 11.6%.
Take `OCCNCC(O)Cn1c2ccc(I)cc2c2cc(I)ccc21` (stereo not given): the displacement was -4.2%.
The same measure for `COc1cc2c(cc1OC)-c1nnc(-c3ccc(Br)cc3)n1C(C)(C)C2`: 16.1%; for `O=C(CSc1nc2ccccc2o1)NCc1ccco1`: -19.3%; for `COc1cc(OC)cc(C(=O)Nc2ccc3oc(-c4ccccc4F)nc3c2)c1`: 6.8%.
As for `COc1ccc(CCNC(=O)C2CCCCC2C(=O)O)cc1` (stereo not given), the displacement was determined as 6.3%.
Regarding `CC1=CCN(C(C)(C)C)CC1=O`, the displacement is -0.3%.
As to `CCOC(=O)c1c(Nc2ccccc2)sc(C=NCCc2ccccc2)c1O`, the displacement was -7.7%.
Then `COc1ccc(Cl)cc1NC(=O)Cc1ccccc1`, with 4.3%; and `COc1ccc(OC)c(-n2c(O)c(C=NCc3ccccc3F)c(=O)[nH]c2=O)c1`, with 5.8%.
Then `CCOc1cc(C2NC(=S)NC(C)=C2C(=O)Nc2ccc(OC)cc2)ccc1O` (stereo not given), with -3.2%; and `CCc1ccc(CN2CCN(C(=O)c3ccco3)CC2)cc1`, with -15.9%.
With `CCCSc1nc2ccccc2n1CCO`, the displacement is -1.9%.
Regarding `c1cnn(-c2cc(NC3CCCCC3)ncn2)c1`, the displacement is -11.6%.
Then `COc1ccc(OC)c(C2/C(=C(\O)c3ccc(Cl)cc3)C(=O)C(=O)N2c2cc(C(C)(C)C)on2)c1` (stereo not given), with -9%.
`O=C1NC(=O)C(=Cc2ccc(-c3cc(Cl)c([N+](=O)[O-])cc3Cl)o2)C(=O)N1`: the displacement came to 81.2%.
For the compound `CCc1ccc(CN2CCN(S(C)(=O)=O)CC2)cc1`, the displacement was found to be 9%.
`Cc1cc2[nH]c(=O)cc(-c3ccccc3)n2n1`: the displacement is -5.3%.
On to `COc1ccc(C2C3=C(CC(C)(C)CC3=O)NC3=C2C(=O)CC(C)(C)C3)cc1C(=O)O`, for which the displacement was -5.1%.
In the case of `N/C(=N\OC(=O)c1ccccc1I)c1cccnc1`, the displacement was determined as 2.2%.
Consider `N/C(=N\OC(=O)c1ccc(Cl)c([N+](=O)[O-])c1)c1ccccn1`, for which the displacement is -7.2%.
The same measure for `O=S(=O)(NCc1ccncc1)c1ccc(F)cc1`: 13.7%; for `O=C1CC(Cc2ccc(Cl)cc2)C(=O)N1c1ccc(Cl)c(Cl)c1` (stereo not given): -7.4%.
